Source: the RNAGym collection of RNA variant scans (doi:10.7554/elife.90254)
The source gives no read counts; variants with many changes may rest on few reads.

B1: LINE1-mini (parent)
chain: GGCAGAGCUCAACACAGCGUGGCAAAGUGGCUGUGGCUAGACUGCC

Variants of: B1
Test: self-cleavage, relative activity (ratio to wild type); higher = more cleavage; in vitro, sequencing; the parent is a self-cleaving ribozyme

| Variant | self-cleavage |
| --- | --- |
| A6U U20C A25G G29U C46G | 0.57 |
| A6U C13A G29U G30A G44U | 0.03 |
| A6U U28C A39G C42U | 0.01 |
| A6U C8A C15U A41C | 0.52 |
| A6U G30A U32A | 0.17 |
| A6U C8U C10U G30A G36U | 0.05 |
| A6U C10A C13G G27A U32C | 0.02 |
| A6U C8A U9A A26G G30U | 0.35 |
| A6U G17U G19U G40U | 0.01 |
| A6U C18U G27U G29A | 0.06 |
| A6U G7A U34C U43G | 0.02 |
| A6U C10U U34A G36A C42A | 0 |
| G7A A11C G19U G29U | 0 |
| A6U C15A G27C U28G C31U G40A G44A | 0.02 |
| A6U U9C G40U | 0.05 |
| G7A A12G G21U C46A | 0.01 |
| A6U G40U U43C | 0.05 |
| A6U G35C G40C | 0.04 |
| A6U G21U G22C C31U | 0.62 |
| A6U C13U C31U A41U | 0.14 |
| A6U C15A A16C G27U | 0.09 |

| Variant | self-cleavage |
| --- | --- |
| G7A A12C G21C U32G | 0.01 |
| A6U G33U G35A | 0.02 |
| A6U C8U A12U | 0.39 |
| G7A A11U A16U A41U | 0.03 |
| G7A A11G C13U A25U A39U | 0.05 |
| A6U G33C C46G | 0.07 |
| A6U G17U C23U C46U | 0.37 |
| A6U U28C G40C | 0.02 |
| A6U C15U U32C | 0.11 |
| G7A A12C C18U G27U U32A | 0.02 |
| A6U C13U C23A C31G C45G | 0.09 |
| A6U C8U C18U A25G | 0.61 |
| G7A A11U A16G G33C | 0.04 |
| A6U C8U U32A C37U | 0.03 |
| G7A A11C G27C | 0.03 |
| A6U C8A U9C G27A G40U | 0.25 |
| A6U C18A G19U G21U G36A A41C | 0.04 |
| A6U C8A U34G | 0.07 |
| G7A A12C U20C | 0.01 |
| A6U C31G C37A C42U C46A | 0.02 |
| A6U U9A A24U | 0.05 |

| Variant | self-cleavage |
| --- | --- |
| A6U G17U U34C G35U | 0.15 |
| A6U G7C U20G A24C | 0.23 |
| A6U G21A C46G | 1.45 |
| A6U U9C G33A | 0.09 |
| A6U C10A G19C G21U G30C C37U | 0.01 |
| G7A A12U G19A G29A | 0.1 |
| A6U C8A G19C U43G | 0.03 |
| A6U U9A A11U G40U | 0.02 |
| A6U U9G C31U A39G | 0.06 |
| A6U C13U G22A G35A C37A | 0.03 |
| A6U G27A A41U | 0.12 |
| A6U G7C C8U C13A G19C A24U U32G G35A | 0.14 |
| A6U C18G G29C G40C A41G | 0.07 |
| A6U G17C G19C G22U A39C | 0.16 |
| A6U G35U G40A G44A | 0.65 |
| A6U C8U G30U G36C C37A U43A | 0.51 |
| G7A A12C U34G U43G C45U | 0 |
| G7A A14C C18A U28C G36U A39G C42U | 0.03 |
| A6U U32G C42U | 0.03 |
| A6U C23U G44A | 0.42 |
| A6U U9G C15A G21C G44C | 0.02 |

| Variant | self-cleavage |
| --- | --- |
| A6U C23U C31G | 0.18 |
| A6U C10U A16C G22U | 0.09 |
| A6U C10U A14U | 0.04 |
| A6U G7C A12G C18U G19C A24G | 0.03 |
| G7A A12G C13G U34C G44U | 0.41 |
| A6U U9G C15G U38A C45U | 0.01 |
| A6U U20A G29U C42A | 0.01 |
| A6U U38G C42A U43A | 0.02 |
| A6U C8U A14C G21U | 0.04 |
| A6U G17U U20C G22A G27C G30U | 0.78 |
| A6U G7C C15U G22A | 0.09 |
| A6U G17C G22A A25U | 2.27 |
| A6U G7C A12G G29U G33C C45A C46G | 0.02 |
| A6U C15G G36C A39U | 0.11 |
| A6U G19A G22A | 0.77 |
| G7A A11G G22C | 0.01 |
| A6U U20A U28A G40U | 0.06 |
| A6U C10A C13U C23A C45U | 0 |
| A6U C15U G19U G36U | 0.19 |
| A6U C15U U38G U43C | 0.02 |
| A6U C23G G29U | 0.19 |
